The text below walks through data of PubChem BioAssay (EPA / NIEHS).

The nature of test [1]: ATG_DR4_LXR_CIS: Attagene CIS-FACTORIAL HepG2 Assay for human Liver X Receptor (LXR), DR4 submotif (AID 2282929; active = hit-call score of the fitted dose curve at least 0.9, where 1 is the maximum; inactive = score below 0.9). The conditions noted are these: HepG2 Attagene DR4 cis-reporter, mRNA transcription; actives raise or lower the signal. The method, boiled down: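 Fluorescence intensity of labelled reporter cDNA fragments, separated by capillary electrophoresis, gives the signal. HepG2 cells bearing cis-regulated reporter constructs were treated 24 h; activity fitted bidirectionally relative to DMSO negative control.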

Test [2] has as its target human Retinoid X Receptor beta (RXRb), RXRB (gene 6257) (UniProt P28702). The test can be described thus: ATG_RXRb_TRANS: Attagene TRANS-FACTORIAL HepG2 Assay for human Retinoid X Receptor beta (RXRb) (AID 2283013). An outline of the steps:
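Multiplexed TRANS reporter assay in HepG2; 24 h dosing; reporter mRNA by RT-PCR/CE fluorescence; gain-of-signal relative to DMSO.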

Test [3] can be described thus: ATG_MRE_CIS: Attagene CIS-FACTORIAL HepG2 Assay for human Metal Responsive Element (MRE) (AID 2282954; active = hit-call score of the fitted dose curve at least 0.9, where 1 is the maximum; inactive = score below 0.9). The conditions noted are these: HepG2 MRE cis-reporter transcription, Attagene multiplex; actives raise or lower the signal. The method, boiled down:
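HepG2 cells transiently transfected with multiple cis-element reporter units measure endogenous MTF1-driven transcription. After 24 h compound exposure, reporter mRNA is quantified by RT-PCR with 6-FAM labelling, HpaI digestion and capillary electrophoresis; bidirectional fits versus DMSO.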

Test [4] concerns the target Estrogen receptor (Homo sapiens) (UniProt P03372). The test can be described thus: NVS_NR_hER: NovaScreen (NVS) Nuclear Receptor Binding Assay for human Estrogen Receptor (ER) (AID 2283348). The method, boiled down: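 Cell-free radioligand binding with protein extracted from MCF7 cells; scintillation counting 18 hours after dosing. Loss of signal versus DMSO baseline read as displacement; primary single-concentration screen at 25 uM in duplicate, actives retested in concentration series.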

Test [5] has the same target. The test can be described thus: OT_ER_ERaERa_1440: Odyssey Thera (OT) 24-hour HEK293T Protein-Complementation Assay for Estrogen Receptor-alpha/-alpha Homodimer (AID 2283349).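 Note: hits raise fluorescence above DMSO for agonists and antagonists alike.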 The method, boiled down: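 Readout is the rise in mean fluorescence from reporter fragment complementation when ERα LBD (aa 310-547) units dimerize in HEK293T cells. Measured 24 h after dosing and analysed as increase over DMSO control.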

Test [6] shares this target. The test can be described thus: OT_ER_ERaERa_0480: Odyssey Thera (OT) 8-hour HEK293T Protein-Complementation Assay for Estrogen Receptor-alpha/-alpha Homodimer (AID 2283351).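 Note: rise in fluorescence from reassembled reporter fragments on ERα LBD homodimer in nucleus or whole cell.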 An outline of the steps: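 Binding reporter in which dimerisation of ERα LBD (aa 310-547) fusions reconstitutes a fluorescent reporter in HEK293T cells. Compounds incubated 8 h; mean fluorescence intensity increase versus DMSO scored.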

For test [7], the target named is T1, Estrogen receptor (Homo sapiens) + Estrogen receptor beta (Homo sapiens) (UniProt P03372+Q92731). The test can be described thus: OT_ER_ERaERb_0480: Odyssey Thera (OT) 8-hour HEK293T Protein-Complementation Assay for Estrogen Receptor-alpha/-beta Heterodimer (AID 2283352). The method, boiled down: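 Human HEK293T cells were treated for 8 hours and receptor heterodimerisation was detected through reconstitution of a fluorescent reporter split between ER-alpha and ER-beta ligand-binding domains. Activity was analysed as gain of signal against DMSO.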

Test [8] addresses T1, Estrogen receptor (Homo sapiens) + Estrogen receptor beta (Homo sapiens). The test can be described thus: OT_ER_ERaERb_1440: Odyssey Thera (OT) 24-hour HEK293T Protein-Complementation Assay for Estrogen Receptor-alpha/-beta Homodimer (AID 2283356).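 Note: heteromer of ER alpha and ER beta binding domains; hits raise reporter fluorescence and both agonists and antagonists give an increase.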 The method, boiled down: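 24 h exposure; HEK293T PCA cells with ERα/ERβ LBD fragments; signal rise in nuclear or whole-cell fluorescence over vehicle.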

For test [9], the target named is Estrogen receptor beta (Homo sapiens) (UniProt Q92731). The test can be described thus: OT_ER_ERbERb_0480: Odyssey Thera (OT) 8-hour HEK293T Protein-Complementation Assay for Estrogen Receptor-beta/-beta Homodimer (AID 2283357).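 Note: active means signal gain over DMSO baseline.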 An outline of the steps: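 Readout: increase in mean fluorescence intensity (nucleus for agonists; nucleus plus cytoplasm for antagonists) relative to DMSO, from a reporter-fragment complementation of human ER-beta LBD homodimer in HEK293T cells dosed 8 hours.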
UniProt Q92731, sequence (Q92731 whole entry, looked up, the tested form may be a part): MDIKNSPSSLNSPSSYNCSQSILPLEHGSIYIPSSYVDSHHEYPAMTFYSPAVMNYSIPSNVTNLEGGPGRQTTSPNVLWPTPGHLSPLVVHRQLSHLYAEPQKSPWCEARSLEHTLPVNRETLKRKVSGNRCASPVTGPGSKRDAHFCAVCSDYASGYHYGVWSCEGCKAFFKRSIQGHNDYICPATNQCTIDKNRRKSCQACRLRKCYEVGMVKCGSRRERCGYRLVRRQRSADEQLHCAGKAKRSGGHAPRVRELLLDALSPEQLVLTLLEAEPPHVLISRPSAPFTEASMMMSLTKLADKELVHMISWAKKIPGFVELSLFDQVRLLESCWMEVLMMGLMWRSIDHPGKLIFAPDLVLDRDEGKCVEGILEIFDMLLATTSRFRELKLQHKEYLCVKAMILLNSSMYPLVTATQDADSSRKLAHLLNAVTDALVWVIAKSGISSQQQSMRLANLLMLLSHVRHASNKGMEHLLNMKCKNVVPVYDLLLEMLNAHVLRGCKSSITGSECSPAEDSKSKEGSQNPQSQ

The target of test [10] is mouse Estrogen Receptor alpha (Era), Esr1 (gene 13982) (UniProt P19785). The test can be described thus: NVS_NR_mERa: NovaScreen (NVS) Nuclear Receptor Binding Assay for mouse Estrogen Receptor alpha (Era) (AID 2283378).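 Note: hit means loss of bound radioligand signal relative to DMSO.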 The method, boiled down: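 Measurements come from scintillation counting after filtration, taken 18 hours after chemicals were added to a cell-free mouse Era preparation with radioligand. Screening was duplicate at 25 uM, with concurrent positive and negative controls and confirmatory concentration series for actives.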
UniProt P19785, sequence (P19785 whole entry, looked up): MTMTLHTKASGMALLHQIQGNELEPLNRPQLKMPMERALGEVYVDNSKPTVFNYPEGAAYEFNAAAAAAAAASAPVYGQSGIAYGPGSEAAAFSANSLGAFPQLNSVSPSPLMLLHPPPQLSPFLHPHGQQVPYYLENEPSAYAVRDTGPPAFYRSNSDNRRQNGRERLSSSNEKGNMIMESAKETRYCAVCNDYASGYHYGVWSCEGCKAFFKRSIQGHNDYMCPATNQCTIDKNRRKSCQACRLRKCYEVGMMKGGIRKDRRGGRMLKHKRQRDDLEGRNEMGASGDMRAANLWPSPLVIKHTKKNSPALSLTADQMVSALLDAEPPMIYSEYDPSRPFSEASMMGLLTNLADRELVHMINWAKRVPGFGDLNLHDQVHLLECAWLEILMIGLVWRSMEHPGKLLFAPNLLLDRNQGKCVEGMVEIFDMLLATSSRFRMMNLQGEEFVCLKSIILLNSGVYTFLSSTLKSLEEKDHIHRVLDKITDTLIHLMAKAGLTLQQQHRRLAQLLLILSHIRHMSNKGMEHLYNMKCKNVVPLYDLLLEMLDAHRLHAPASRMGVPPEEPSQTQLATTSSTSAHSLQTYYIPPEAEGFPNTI

Test [11] has as its target Estrogen receptor beta (Homo sapiens) (UniProt Q92731). The test can be described thus: OT_ER_ERbERb_1440: Odyssey Thera (OT) 24-hour HEK293T Protein-Complementation Assay for Estrogen Receptor-beta/-beta Homodimer (AID 2283380).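 Note: fluorescence gain from ER beta LBD homodimer complementation read by laser scanning cytometry; scored as signal increase over DMSO baseline for both agonists and antagonists.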 The method, boiled down:
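HEK293T cells stably expressing human ER-beta LBD (aa 310-547) PCA homodimer pair, dosed 24 h; formaldehyde-fixed, Draq5-stained. Readout: increase in nuclear (agonist) or nuclear plus cytoplasmic (antagonist) fluorescence intensity versus DMSO, gain-of-signal fitting.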

Test [12] has as its target Estrogen receptor (Homo sapiens) (UniProt P03372). The test can be described thus: OT_ERa_GFPERaERE_0480: Odyssey Thera (OT) 8-hour HeLa Transcription Induction Assay for Estrogen Receptor (AID 2283381; active = hit-call score of the fitted dose curve at least 0.9, where 1 is the maximum; inactive = score below 0.9). The method, boiled down: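 Cells (HeLa) receive compound; after 8 h, reporter fluorescence is imaged and quantified by high-content analysis. Gain-of-signal relative to DMSO gives the endpoint.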

Test [13] is described as follows: ATG_PXRE_CIS: Attagene CIS-FACTORIAL HepG2 Assay for human Pregnane X Receptor Element (PXRE) (AID 2282957; active = hit-call score of the fitted dose curve at least 0.9, where 1 is the maximum; inactive = score below 0.9). The conditions noted are these: HepG2 Attagene CIS-FACTORIAL PXRE reporter, mRNA; actives raise or lower the signal. The method, boiled down:
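Multiplexed cis-reporter assay in transiently transfected human HepG2 cells; 24 h chemical exposure. Reporter transcripts quantified by RT-PCR with fluorescent labeling and capillary electrophoresis.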

A short description of test [14]: ATG_VDRE_CIS: Attagene CIS-FACTORIAL HepG2 Assay for human Vitamin D Receptor Element (VDRE) (AID 2282968; active = hit-call score of the fitted dose curve at least 0.9, where 1 is the maximum; inactive = score below 0.9). The conditions noted are these: HepG2 VDRE cis-reporter transcription, actives raise or lower the signal. The method, boiled down:
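HepG2 cells transiently transfected with cis-element reporter units, dosed 24 h; reporter mRNA measured by RT-PCR, 6-FAM labeling, HpaI digestion and capillary electrophoresis. Activity fitted bidirectionally against DMSO baseline.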

Test [15] addresses Androgen Receptor/SRC-1 Co-activator, AR (gene 367) (UniProt P10275). The test can be described thus: OT_AR_ARSRC1_0960: Odyssey Thera (OT) 16-hour HEK293T Protein-Complementation Assay for Androgen Receptor/SRC-1 Co-activator (AID 2283353).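 Note: actives raise the signal above DMSO so potency reflects increased AR and SRC-1 complex.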 An outline of the steps:
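Interaction of AR with SRC-1 was followed by YFP fragment complementation in HEK293T cells after 16 h of dosing. Gain of nuclear-over-cytoplasmic 488 nm fluorescence against DMSO controls defined activity.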

Test [16] concerns the target bovine Estrogen Receptor (ER), ESR1 (gene 407238) (UniProt P49884). The test can be described thus: NVS_NR_bER: NovaScreen (NVS) Nuclear Receptor Binding Assay for bovine Estrogen Receptor (ER) (AID 2283345).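 Note: actives lower the bound radioligand count which means they displace the ER ligand.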 The method, boiled down: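 Scintillation counting of displaced radioligand gave the readout; bovine uterine membrane extract supplied the receptor. Measured 18 h post-dose, normalized to DMSO baseline. Single 25 uM duplicate screen preceded concentration-response follow-up.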
UniProt P49884, sequence (P49884 whole entry, looked up): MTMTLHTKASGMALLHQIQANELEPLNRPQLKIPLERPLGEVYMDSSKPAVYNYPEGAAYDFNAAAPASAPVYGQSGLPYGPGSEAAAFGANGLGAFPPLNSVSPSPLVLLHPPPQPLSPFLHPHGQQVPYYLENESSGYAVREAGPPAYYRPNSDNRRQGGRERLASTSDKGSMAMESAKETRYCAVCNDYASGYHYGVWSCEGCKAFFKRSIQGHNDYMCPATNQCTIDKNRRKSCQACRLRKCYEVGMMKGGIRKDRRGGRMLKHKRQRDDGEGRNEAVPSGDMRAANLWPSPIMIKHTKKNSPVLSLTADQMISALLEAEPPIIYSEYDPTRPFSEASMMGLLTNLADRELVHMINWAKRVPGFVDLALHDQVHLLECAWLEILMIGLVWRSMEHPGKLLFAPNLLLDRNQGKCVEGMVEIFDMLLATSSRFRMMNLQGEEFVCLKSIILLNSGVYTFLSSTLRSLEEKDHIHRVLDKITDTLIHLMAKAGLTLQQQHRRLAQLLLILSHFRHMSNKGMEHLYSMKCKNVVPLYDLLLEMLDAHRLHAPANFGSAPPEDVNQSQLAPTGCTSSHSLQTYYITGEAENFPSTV

For part of its entries the source gives two or more results. The other results are left out here. There may be further records. Values that stand side by side repeat one measurement in other runs, samples, wells, individuals or studies. Additions like (4×) count equal records among those shown. Results filed as inconclusive are left out. Rule for the calls, unless noted: active = hit-call score of the fitted dose curve at least 0.9, where 1 is the maximum; inconclusive = response in the unintended direction; inactive = score below 0.9.

UniProt P10275, sequence (P10275 whole entry, looked up, the tested form may be a part): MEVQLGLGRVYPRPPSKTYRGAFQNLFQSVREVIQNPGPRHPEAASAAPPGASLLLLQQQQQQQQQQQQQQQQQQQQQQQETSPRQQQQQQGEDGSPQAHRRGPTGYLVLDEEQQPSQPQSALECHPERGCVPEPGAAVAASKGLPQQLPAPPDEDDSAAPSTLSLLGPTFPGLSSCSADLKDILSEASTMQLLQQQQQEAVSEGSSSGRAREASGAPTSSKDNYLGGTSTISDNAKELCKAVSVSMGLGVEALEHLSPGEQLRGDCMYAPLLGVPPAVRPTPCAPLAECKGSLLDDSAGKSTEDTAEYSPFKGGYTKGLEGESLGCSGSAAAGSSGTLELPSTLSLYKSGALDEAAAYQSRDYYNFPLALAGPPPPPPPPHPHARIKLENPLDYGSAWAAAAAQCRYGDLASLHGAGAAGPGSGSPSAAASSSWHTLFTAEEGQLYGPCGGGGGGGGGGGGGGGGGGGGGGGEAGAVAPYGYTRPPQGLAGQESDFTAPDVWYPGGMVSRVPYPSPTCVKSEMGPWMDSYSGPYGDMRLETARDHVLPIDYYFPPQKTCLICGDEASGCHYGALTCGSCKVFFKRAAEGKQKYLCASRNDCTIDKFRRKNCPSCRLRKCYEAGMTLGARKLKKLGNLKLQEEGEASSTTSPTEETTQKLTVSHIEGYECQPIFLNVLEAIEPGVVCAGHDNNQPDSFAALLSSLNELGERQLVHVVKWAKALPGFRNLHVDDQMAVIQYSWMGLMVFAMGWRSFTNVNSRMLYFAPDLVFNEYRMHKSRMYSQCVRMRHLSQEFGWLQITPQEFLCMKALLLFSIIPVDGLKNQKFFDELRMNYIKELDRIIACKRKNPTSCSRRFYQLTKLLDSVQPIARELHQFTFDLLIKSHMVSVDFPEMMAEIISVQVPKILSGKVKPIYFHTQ
UniProt P28702, sequence (P28702 whole entry, looked up): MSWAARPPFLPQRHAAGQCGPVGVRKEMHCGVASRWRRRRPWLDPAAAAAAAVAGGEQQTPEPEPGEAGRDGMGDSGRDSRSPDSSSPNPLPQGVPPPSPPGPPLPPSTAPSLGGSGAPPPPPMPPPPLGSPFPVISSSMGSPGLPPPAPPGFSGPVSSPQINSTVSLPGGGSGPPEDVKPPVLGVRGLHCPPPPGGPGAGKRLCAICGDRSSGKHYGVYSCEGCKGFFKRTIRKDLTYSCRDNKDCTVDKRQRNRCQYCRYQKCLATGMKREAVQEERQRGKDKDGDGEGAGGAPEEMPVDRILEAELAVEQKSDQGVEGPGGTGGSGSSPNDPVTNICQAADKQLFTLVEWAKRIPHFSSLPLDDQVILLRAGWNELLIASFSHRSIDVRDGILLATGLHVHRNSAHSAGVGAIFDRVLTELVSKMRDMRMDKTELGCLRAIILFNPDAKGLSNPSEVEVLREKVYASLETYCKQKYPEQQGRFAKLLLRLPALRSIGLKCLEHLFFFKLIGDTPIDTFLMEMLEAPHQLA

Regarding `Clc1ccc(C(c2ccccc2Cl)C(Cl)(Cl)Cl)cc1` (stereo not drawn), the AC50 (in general, the midpoint of the concentration-response curve, whichever way the signal moves) was “active: 19, 7.09, 16.8, 42.6 µM [separate samples]” in [1] and “active: 15.4, 4.26, 11.8, 11.4 µM [separate samples]” in [2].

For the compound `CCC(C)(c1ccc(O)cc1)c1ccc(O)cc1`, the AC50 result in test [3] is “active: 53.4, 12.2, 44.3, 22.7 µM [separate samples]”; in test [4] it was “active: 43.4, 17.9, 16.8, 12.2, 284 nM [separate samples]”; in test [5], “active: 505 nM, 544 nM, 12.5 µM, 10.5 µM, 10.1 µM [separate samples]”; in test [6], “active: 419 nM, 442 nM, 2.16 µM, 1.84 µM, 1.42 µM [separate samples]”; in test [7] it was “active: 287 nM, 226 nM, 477 nM, 489 nM, 1.2 µM [separate samples]”; in test [8] it was “active: 241 nM, 232 nM, 1.34 µM, 1.08 µM, 916 nM [separate samples]”. For the same compound, the AC50 entry in test [9] is “active: 101, 111, 26.3, 20.9, 19.3 nM [separate samples]”; in [10], “active: 24.8, 22.3, 8.74, 6.11, 227 nM [separate samples]”; in test [11] it was “active: 125, 145, 48.2, 12.5, 11.2 nM [separate samples]”; in [12] it was “active: 235, 295, 108, 70.3, 263 nM [separate samples]”.

As to `C[C@]12CCC(=O)C=C1CC[C@@H]1[C@@H]2CC[C@@]2(C)[C@H]1CC[C@]2(C)O`, the AC50 entry in test [13] is “active: 24.6, 8.23, 15.4, 24.9 µM [separate samples]”.

As for `CCC(=O)O[C@H]1CC[C@H]2[C@@H]3CCC4=CC(=O)CC[C@]4(C)[C@H]3CC[C@]12C`, the AC50 result in test [14] is “active: 31, 43.6, 21.5, 70.6 µM [separate samples]”; in test [15] it was “active: 9.2, 7.03, 8.72, 30 nM (3×) [separate samples]”.

For the compound `Oc1ccc(C(c2ccc(O)cc2)(C(F)(F)F)C(F)(F)F)cc1`, the concentration at half-maximal activity (AC50) result in [16] is “active: 50, 185, 110, 97.6, 78.5 nM [separate samples]”; in test [10] it was “active: 21.8, 66, 22.5, 5.36, 13.3 nM [separate samples]”.

For `CC(C)(c1ccccc1)c1ccc(O)cc1`, the AC50 result in test [4] was “active: 847 nM, 1.79 µM, 5.27 µM, 12.7 µM [separate samples]”.
